Reference: PMC4336329 (PLoS ONE, 2015)
The whole screen tested about 310,000 compounds, of which about 2,200 (0.71%) showed an effect of 50% or more. Effects have a minus sign here. The list shows a part of the results.

target: human ether-à-go-go-related gene (hERG) potassium channel (human, UniProt Q12809); assay: primary screen, population patch clamp on CHO cells stably expressing hERG
Sequence (Q12809 whole entry, looked up): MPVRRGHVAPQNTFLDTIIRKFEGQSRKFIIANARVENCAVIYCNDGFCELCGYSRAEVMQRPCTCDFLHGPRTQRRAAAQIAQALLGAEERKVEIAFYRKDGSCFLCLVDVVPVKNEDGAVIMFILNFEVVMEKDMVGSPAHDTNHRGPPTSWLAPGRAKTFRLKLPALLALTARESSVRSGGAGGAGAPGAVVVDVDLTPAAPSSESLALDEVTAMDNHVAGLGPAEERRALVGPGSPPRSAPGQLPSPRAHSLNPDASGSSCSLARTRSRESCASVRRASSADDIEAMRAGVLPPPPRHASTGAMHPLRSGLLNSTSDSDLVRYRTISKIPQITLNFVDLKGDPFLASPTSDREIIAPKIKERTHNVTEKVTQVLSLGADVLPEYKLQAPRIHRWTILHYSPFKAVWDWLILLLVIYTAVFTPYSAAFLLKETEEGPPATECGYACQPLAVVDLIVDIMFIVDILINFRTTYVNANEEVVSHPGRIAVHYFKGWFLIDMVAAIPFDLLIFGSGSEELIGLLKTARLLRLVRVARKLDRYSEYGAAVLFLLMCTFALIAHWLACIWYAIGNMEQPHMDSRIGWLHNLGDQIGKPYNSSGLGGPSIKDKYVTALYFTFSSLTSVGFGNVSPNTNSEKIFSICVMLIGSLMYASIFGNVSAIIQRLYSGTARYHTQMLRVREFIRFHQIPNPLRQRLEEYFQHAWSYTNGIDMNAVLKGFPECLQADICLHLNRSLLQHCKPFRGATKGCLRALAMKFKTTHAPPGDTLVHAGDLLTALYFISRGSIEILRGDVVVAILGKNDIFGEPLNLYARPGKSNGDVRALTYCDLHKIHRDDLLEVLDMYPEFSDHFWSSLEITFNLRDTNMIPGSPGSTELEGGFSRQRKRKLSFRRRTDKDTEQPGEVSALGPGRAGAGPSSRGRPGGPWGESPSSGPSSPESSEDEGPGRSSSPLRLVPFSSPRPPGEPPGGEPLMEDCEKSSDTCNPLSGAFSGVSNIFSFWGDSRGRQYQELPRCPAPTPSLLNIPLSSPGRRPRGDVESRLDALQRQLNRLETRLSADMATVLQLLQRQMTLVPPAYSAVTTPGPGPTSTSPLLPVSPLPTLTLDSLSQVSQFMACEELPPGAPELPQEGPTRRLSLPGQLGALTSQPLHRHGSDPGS

| Structure (SMILES) | hERG current change (%, negative = inhibition) at 1uM [%] |
| --- | --- |
| COc1ccc(Br)cc1CNC(=O)Cc1c(C(=O)O)[nH]c2ccc(Cl)cc12 | 5.01 |
| O=C(Cc1ccc(S(=O)(=O)N2CCOCC2)s1)Nc1ccc2c(c1)CCC2 | 6.72 |
| O=C(NC1CCCC1)C(=O)N(Cc1cccnc1)C(C(=O)NCc1ccco1)c1ccccc1F (stereo not shown) | -0.265 |
| Cc1sc2nc(SCC(N)=O)n(-c3ccccc3)c(=O)c2c1C | 15.8 |
| CC(C)C(=O)Nc1c(-c2ccccc2Cl)c(=O)c2ccccc2n1C | 9.62 |
| Cc1ccccc1NC(=S)NC(=O)C1CCCCC1 | 4.7 |
| O=C(CCCN1C(=O)/C(=C/c2cccs2)SC1=S)Nc1cccnc1 | 15.6 |
| COc1cccc(OCC(=O)O)c1 | 3.71 |
| COc1ccccc1-c1cc(C(=O)N2CCN(c3ccc(F)cc3)CC2)no1 | -4.87 |
| CCNc1nc(NCC)n2c(SCC(=O)NCC3CCCCC3)nnc2n1 | 12.8 |
| CC(=O)Nc1ccc2nc(SCC(=O)NCCOc3ccccc3)sc2c1 | -1.86 |
| CCOC(=O)c1nnc(-c2ccccc2)nc1Sc1c(Cl)cccc1Cl | 12.1 |
| C/C(=C\c1ccc(Br)cc1)C(=O)c1c(C)cc(C)[nH]c1=O | 17 |
| COC(=O)CSc1nnc(-c2ccncc2)n1N | 15.5 |
| CCc1ccc(OCCNC(=O)c2ccco2)cc1 | 10.8 |
| CN1CCN(c2ncccc2S(=O)(=O)N2CCCCC2)CC1 | 9.59 |
| Cc1ccc(NC(=O)N2CCCC2c2cccs2)cc1 (stereo not shown) | 11.5 |
| CCNS(=O)(=O)c1ccc(OC)c(C(=O)NC2CCCCC2)c1 | 12.1 |
| Cc1nn(CC2CC2)c(=O)n1-c1ccc(Cl)cc1 | 7.79 |
| COC(=O)Nc1ccccc1C(=O)N1CCN(c2ccc(C)cc2)CC1 | 12.7 |
| COc1cc(SC)ccc1C(=O)Nc1c(Cl)cncc1Cl | 5.57 |
| CC1=C(C(=O)Nc2ccc(C)cc2C)C(c2cccc([N+](=O)[O-])c2)n2nc(C(=O)OC(C)C)nc2N1 (stereo not shown) | 2.47 |

| Structure (SMILES) | hERG current change (%, negative = inhibition) at 1uM [%] |
| --- | --- |
| O=C(O)c1cc2sccc2s1 | 10.6 |
| Clc1ccsc1-c1ccnc(-n2cccc2)n1 | 5.32 |
| FC(F)(F)c1ccc(C2[C@H]3CN(Cc4cccnc4)[C@H](c4ccccc4)C34CC2(c2ccccc2)C4)cc1 (stereo partly shown) | 6.58 |
| Nc1cc2c3c(cccc3c1)C(=O)N(CCN1CCCC1)C2=O | 12.9 |
| Cc1ccc(NC(=O)COC(=O)CN2CSCC2=O)cc1C | 3.93 |
| Cc1ccc(C(=O)N[C@H](C(=O)OCC(=O)Nc2cccc(S(N)(=O)=O)c2)C(C)C)cc1 | -9.8 |
| O=C(OCn1nnc2ccccc2c1=O)c1ccc2ncsc2c1 | 6.96 |
| COc1ccc(-c2csc(-n3ncc(-c4cccs4)c3N)n2)cc1 | 14.9 |
| COc1ccc(N(CC(=O)NC2CCCC2)C(=O)Cn2nnc(-c3ccc(OC)c(OC)c3)n2)cc1 | 8.01 |
| COc1cccc(C(=O)O/N=C(\N)c2ccc([N+](=O)[O-])cc2)c1 | 14.9 |
| O=C(COc1ccccc1[N+](=O)[O-])N/N=C/c1cccs1 | 12 |
| COc1ccc(N2CCN(C(=O)CN=C3NS(=O)(=O)C(c4ccc(C)cc4)=C3C)CC2)cc1 | 3.2 |
| CC(C)c1ccc(CN2CCN(C(=O)CSc3nnnn3C3CC3)CC2)cc1 | -11.1 |
| Cc1ccc(C(=O)NCCn2c(N)c(C#N)c3nc4ccccc4nc32)cc1 | 12.9 |
| CCOc1c(Br)cc(CNc2ccc3c(c2)OCCO3)cc1OC | -1.23 |
| CCOc1ccccc1-c1nc(SCC(=O)O)n[nH]1 | -1.8 |
| Cc1cccc(C)c1-n1c(C)cc(/C=N\Nc2ccc([N+](=O)[O-])cn2)c1C | 10.6 |
| O=C(O)C1C2C=CC(C3CC23)C1C(=O)N1CCc2ccccc21 (stereo not shown) | -8.78 |
| CNC(=O)C(=O)N/N=C/c1cccnc1 | -5.85 |
| N#Cc1ccccc1NC(=O)CN1C(=O)NC2(CCCC2)C1=O | 10.2 |
| COc1cc(C(=O)NCCc2cn3ccc(C)cc3n2)cc(OC)c1OC | -0.848 |
| CCCCN(C(=O)CSCc1c(C)noc1C)c1c(N)n(CCCC)c(=O)[nH]c1=O | 12.4 |

| Structure (SMILES) | hERG current change (%, negative = inhibition) at 1uM [%] |
| --- | --- |
| CC1(C(=O)NC(=S)N(CCC#N)Cc2cccnc2)CC1(Cl)Cl (stereo not shown) | 15.2 |
| CCOc1ccc(CNCCc2ccc3c(c2)OCO3)cc1 | -52.6 |
| O=c1c2ccccc2ncn1Cc1ccccc1 | 14.3 |
| O=C(COC(=O)c1ccccc1O)Nc1cccc(S(=O)(=O)N2CCCC2)c1 | -1.72 |
| COc1ccc(/C=N/n2cnn(Cc3ccccc3Cl)c2=S)cc1 | 9.09 |
| CC1CC(C)CN(C(=O)CNC(=O)c2ccc3ccccc3c2)C1 (stereo not shown) | 10.7 |
| COc1ccc(CCNC(=O)C/C(C)=N/NC(=O)c2ccc(N)cc2)cc1OC | -0.621 |
| COCCOc1ccc(C(F)(F)F)cc1NC(=O)COC(=O)Cc1c[nH]c2ccccc12 | 8.51 |
| CC(C)(C#N)Cc1cc(CC(C)(C)C#N)cc(C(C)(C)C)c1 | 11 |
| CCOC(=O)N1CCN(C(=O)/C(=C/c2cccs2)NC(=O)c2ccc(OC)c(OC)c2)CC1 | -64.7 |
| O=C1OC(c2ccccc2)c2ccc3ccccc3c21 (stereo not shown) | 18.4 |
| Cc1ccc(CCNC(=O)CN(C)S(=O)(=O)c2cnc[nH]2)cc1 | -1.57 |
| N#Cc1ccccc1Cn1c(=O)n(Cc2ccc(C(=O)NCc3ccco3)cc2)c(=O)c2ccccc21 | -4.17 |
| CC(C)(C)C(=O)NC(=S)Nc1ccccn1 | 13.5 |
| CCN(C(=O)CN1CCN(S(=O)(=O)c2cc(Cl)ccc2Cl)CC1)c1c(N)n(Cc2ccccc2)c(=O)[nH]c1=O | -5.41 |
| Cc1c(/C=N\NC(=O)c2cccc(F)c2)cnn1C | 14.9 |
| O=C(CSc1nc2ccccc2c(=O)n1-c1ccc(F)cc1F)c1c[nH]c2ccccc12 | 10.2 |
| Cc1ccc(NC(=O)CCNC(=O)c2ccc(Br)cc2)cc1S(=O)(=O)N1CCOCC1 | -4.08 |
| COc1ccc(N(C(=O)C(C)C)S(=O)(=O)c2cccc([N+](=O)[O-])c2)cc1 | 6.7 |
| COc1ccc(C2CC(c3ccc(Br)cc3)=NN2C(=O)CN2CCCC2)cc1 (stereo not shown) | -28.3 |
| Nc1ccccc1SCC(=O)Nc1ccc(N2CCOCC2)cc1 | 5.34 |
| COc1ccc(CNC(=S)NCc2ccc(F)cc2)cc1OC | 11 |

| Structure (SMILES) | hERG current change (%, negative = inhibition) at 1uM [%] |
| --- | --- |
| CCCS(=O)(=O)N1CCCC(C(=O)NCCCOCC)C1 (stereo not shown) | 0.616 |
| Oc1ccccc1CN1CCCC(N2CCc3ccccc3C2)C1 (stereo not shown) | 6.36 |
| Cc1cc(-c2ccccc2)n(-c2ccc(C(N)=O)cc2)n1 | 12.2 |
| O=C(CCC(=O)Nc1ccc(F)cc1)N/N=C/c1ccc(F)cc1 | 16.4 |
| COc1ccc(Cl)cc1C(=O)Nn1cnc2ccccc2c1=O | 1.9 |
| O=C(Cc1ccccc1)NC(=S)Nc1ccc2oc(-c3ccccc3F)nc2c1 | 5.24 |
| COCCNC(=O)Cn1cc(/C=C2\C(=O)NC(=O)N(c3cccc(C)c3C)C2=O)c2ccccc21 | 11.3 |
| CCCCn1c(N)c(N(Cc2ccccc2OC)C(=O)c2sccc2C)c(=O)[nH]c1=O | 13.7 |
| CC(C)(C)N(Cc1ccccc1)C(=O)COC(=O)CN1C(=O)C2CC=CCC2C1=O (stereo not shown) | 12.7 |
| O=C(O)C1CCCCC1C(=O)Nc1ccc(OCc2ccccc2)cc1 (stereo not shown) | 11.4 |
| COc1ccc(C(=O)NCC(=O)NCC(=O)OCC(=O)c2ccc(Br)cc2)cc1 | 7.32 |
| Cc1noc(C)c1COc1ccccc1C(=O)NCc1ccccc1Cl | -2.66 |
| CN(CC(=O)Nc1ccccc1Br)C(=O)CNC(=O)Cc1cccc2ccccc12 | 11.1 |
| O=C(Cc1ccc(F)cc1)N1CCN=C1SCc1cccc([N+](=O)[O-])c1 | -3.33 |
| CN1CCN(S(=O)(=O)c2cccc([N+](=O)[O-])c2)CC1 | 12.3 |
| CC(C)Cn1c(N)c(C(=O)CSc2nc3ccccc3n2C)c(=O)n(C)c1=O | 1.85 |
| COc1ccc(NC(=O)CSc2nnc(Cn3cnc4ccccc43)o2)cc1 | 12.4 |
| Cn1c(N)c(C(=O)COC(=O)c2ccc3c(c2)OCCO3)c(=O)n(C)c1=O | 3.15 |
| CCCc1nnc2c(N(C)S(=O)(=O)c3ccccc3)nc3ccccc3n12 | 18 |
| COc1ccccc1/C=N/NC(=O)COCC(=O)N/N=C/c1ccccc1OC | 9.07 |
| CC(C)c1ccc(NC2=NCC(=O)N2Cc2cccs2)cc1.Cl | 15.2 |
| Cc1ccccc1N1CCN(C2CCCN(C(=O)c3ccnn3C)C2)CC1 (stereo not shown) | 9.3 |
